Assay results as given in PMC4336329 (PLoS ONE, 2015).
The campaign covered roughly 310,000 compounds. About 2,200 (0.71%) showed an effect of 50% or more. The effect is printed as a negative number. Some of the results follow.

Target: human ether-à-go-go-related gene (hERG) potassium channel (human, UniProt Q12809)
Assay: primary screen, population patch clamp on CHO cells stably expressing hERG

Chain of human ether-à-go-go-related gene (hERG) potassium channel (Q12809 whole entry, looked up): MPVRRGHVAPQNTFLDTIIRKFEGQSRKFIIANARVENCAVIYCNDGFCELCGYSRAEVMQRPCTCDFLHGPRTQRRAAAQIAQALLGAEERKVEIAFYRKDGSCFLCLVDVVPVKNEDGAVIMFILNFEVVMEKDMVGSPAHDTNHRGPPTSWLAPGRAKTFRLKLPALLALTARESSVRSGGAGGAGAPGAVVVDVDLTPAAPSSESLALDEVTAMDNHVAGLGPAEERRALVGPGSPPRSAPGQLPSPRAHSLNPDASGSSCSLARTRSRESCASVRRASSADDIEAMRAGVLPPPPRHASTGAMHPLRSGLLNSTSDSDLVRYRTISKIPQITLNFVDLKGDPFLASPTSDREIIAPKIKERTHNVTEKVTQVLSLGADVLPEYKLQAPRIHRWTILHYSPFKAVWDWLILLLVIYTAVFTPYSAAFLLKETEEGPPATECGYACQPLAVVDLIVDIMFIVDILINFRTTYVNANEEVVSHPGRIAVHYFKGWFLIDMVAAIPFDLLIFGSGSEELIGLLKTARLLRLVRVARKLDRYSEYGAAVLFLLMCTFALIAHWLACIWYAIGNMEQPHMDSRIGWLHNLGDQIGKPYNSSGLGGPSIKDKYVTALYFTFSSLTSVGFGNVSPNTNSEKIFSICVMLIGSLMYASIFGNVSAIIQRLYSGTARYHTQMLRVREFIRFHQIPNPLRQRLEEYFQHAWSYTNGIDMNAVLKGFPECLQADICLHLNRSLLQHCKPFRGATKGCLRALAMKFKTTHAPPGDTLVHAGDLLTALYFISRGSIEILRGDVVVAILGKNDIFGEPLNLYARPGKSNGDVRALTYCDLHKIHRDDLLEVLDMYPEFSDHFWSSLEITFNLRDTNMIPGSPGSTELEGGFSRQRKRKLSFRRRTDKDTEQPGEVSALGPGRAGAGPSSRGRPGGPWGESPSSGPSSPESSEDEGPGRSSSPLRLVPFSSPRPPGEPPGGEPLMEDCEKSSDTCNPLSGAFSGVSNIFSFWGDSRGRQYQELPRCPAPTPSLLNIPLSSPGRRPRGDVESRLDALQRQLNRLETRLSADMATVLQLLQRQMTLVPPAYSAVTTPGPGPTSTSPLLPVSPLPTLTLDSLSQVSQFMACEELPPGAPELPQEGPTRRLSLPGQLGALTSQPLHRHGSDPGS

Row | SMILES | hERG current change (%, negative = inhibition) at 1uM
1 | C/C(=N\NC(=O)NC1CCCCC1)c1ccco1 | -5.2%
2 | O=C(CCc1c[nH]c2ccccc12)NCCc1ccc(Cl)cc1 | 11.9%
3 | Cc1ccc(NC(=O)Cc2nc(-c3c[nH]c(C(=O)N4CCCC4)c3)cs2)c(C)c1 | 2.05%
4 | CCOc1ccc(CNC(=O)CCCn2nc(C)c3c(C)n(-c4ccc(C)cc4)nc3c2=O)cc1 | 15.2%
5 | COc1ccc2[nH]c(C)c(CCN(Cc3cccs3)C(=S)Nc3cccc(F)c3)c2c1 | 10.6%
6 | O=[N+]([O-])c1ccc(N2CCCCCC2)c2nonc12 | 6.54%
7 | CC1CC(C)(C)NC(=S)N1CCCC(=O)NCc1ccccc1 (stereo not shown) | 11.7%
8 | Cc1cccc(C)c1NC(=O)CCS(=O)(=O)c1cccc2nsnc12 | -1.88%
9 | CCCCc1ccc(N/C(N)=N/c2nc(C)cc(C)n2)cc1 | -34%
10 | COc1ccc(NC(=O)CSc2nc3ccsc3c(=O)n2Cc2ccccn2)c(OC)c1 | -2.79%
11 | Clc1ccccc1-c1ncnc2ccc(Br)cc12 | 6.1%
12 | O=C(c1ccccc1)c1cnc[nH]1 | 1.57%
13 | COc1ccc(OC)c(S(=O)(=O)NCC(c2ccc(F)cc2)N2CCN(C)CC2)c1 (stereo not shown) | -1.39%
14 | CCCC(=O)Oc1ccc(-c2nccc(C(OC)OC)n2)cc1 | 11.5%
15 | CCOC(=O)c1sc(NC(=O)CSc2nnc(Cc3ccccc3)o2)c(C#N)c1C | 11.8%
16 | O=C(Nc1ccc2nc3n(c(=O)c2c1)CCCC3)c1cc([N+](=O)[O-])ccc1F | 0.255%
17 | COc1ccc(-n2nnnc2/C(=C/N(C)C)C(=O)c2ccccc2)cc1 | 9.22%
18 | Cc1ccccc1C(=O)N1CCN=C1SCc1ccc([N+](=O)[O-])cc1 | -8.79%
19 | CN1C(=O)c2ccccc2C(C(=O)NCC2CCCO2)C1c1c[nH]c2ccccc12 (stereo not shown) | 7.98%
20 | CCc1ccc2[nH]c(C(=O)N(C)c3ccc(F)cc3F)cc2c1 | 9.61%
21 | Cn1c(=O)[nH]c(=O)c2c1nc(CN1CCN(c3cccc(Cl)c3)CC1)n2CCN1CCOCC1 | -10.8%
22 | Clc1ccc(-c2nnc3n2CCCS3)cc1 | 8.12%

Row | SMILES | hERG current change (%, negative = inhibition) at 1uM
23 | O=C(Nc1nc2ccccc2s1)C1CCN(S(=O)(=O)c2cc([N+](=O)[O-])ccc2Cl)CC1 | 10.5%
24 | O=C(Cc1csc(NC(=O)Nc2ccc(Cl)cc2)n1)NCc1cccnc1 | -1.57%
25 | CC(=O)Nc1ccc(S(=O)(=O)Nc2nc3nc(-c4ccccc4)cc(-c4ccccc4)n3n2)cc1 | 17.1%
26 | Cc1ccc(OC(C)C(=O)Nc2ccc(C)c(S(=O)(=O)Nc3ccc(C)cc3C)c2)cc1 (stereo not shown) | 9.81%
27 | CS(=O)(=O)N(CC(=O)Nc1ccccc1-c1ccccc1)c1ccc(F)cc1 | 12.2%
28 | Cc1c(NC(=O)c2ccc(C(=O)Nc3c(C)n(C)n(-c4ccccc4)c3=O)cc2)c(=O)n(-c2ccccc2)n1C | 14.9%
29 | CC1=C(C(=O)OCC2CCCO2)C(c2coc3ccc(C)cc3c2=O)C2=C(CCCC2=O)N1 (stereo not shown) | 3.86%
30 | Cc1ccccc1CC(=O)N1CCCC(CNC(=O)c2ccc(F)cc2)C1 (stereo not shown) | 11.4%
31 | Cc1cc(Br)cc2c(C(=O)NCC3CCCO3)cc(-c3ccccc3)nc12 (stereo not shown) | 12%
32 | COC(=O)c1ccc(OCC(O)CN2CCC(C)CC2)cc1 (stereo not shown) | -8.12%
33 | CC(C)C(=O)Nc1ccc2c(c1)nc(CCN1CCN(c3ccccn3)CC1)n2C | 6.24%
34 | Cl.c1ccc(CCn2nnnc2CN2CCN(C3CCCC3)CC2)cc1 | 2.67%
35 | COc1ccc(CCNCc2ccncc2)cc1OC | 14%
36 | Cc1ccc(C(=O)OCN2C(=O)c3ccccc3C2=O)o1 | 14.2%
37 | Cc1ccc(CNC(=O)COc2ccc(S(=O)(=O)N3CCOCC3)cc2)cc1 | 16.5%
38 | CC1(C)CC2(CCO1)OC(=O)CC2C(=O)NCc1ccccc1 (stereo not shown) | -2.59%
39 | COc1ccccc1CN1CC(C(=O)NCc2cc(C(C)C)no2)CCC1=O (stereo not shown) | 19.2%
40 | CCOP(=O)(CC(C(C)=O)C(O)c1ccccc1)OCC (stereo not shown) | 17.8%
41 | COc1ccc(NC(=O)CSc2nccn2Cc2ccco2)cc1 | 14.6%
42 | COc1ccc(NC(=O)c2cccs2)cc1O | -2.58%
43 | COCCNC(=S)Nc1ccc2nc(N3CCN(C)CC3)cc(C)c2c1 | 9.02%
44 | COc1ccc(Cn2c(-c3ccc(C)cc3)c[n+]3ccccc23)cc1.[Br-] | -5.72%

Row | SMILES | hERG current change (%, negative = inhibition) at 1uM
45 | CCOC(=O)C1(Cc2cccc(Cl)c2)CCCN(C2CCN(C(C)=O)CC2)C1 (stereo not shown) | 16.4%
46 | Cc1ccc2nc(-c3ccncc3)cc(-c3ccccc3)c2c1 | 2.64%
47 | Nc1cc(C2CCCC2)nn1-c1ccccc1 | -0.284%
48 | O=C(Nc1nnc(C2=COCCO2)o1)c1cccc(Br)c1 | 14.1%
49 | COc1ccccc1N=C1SCC(=O)N1Cc1ccco1 | 12%
50 | CCOC(=O)CSc1n[nH]c(NC(C)=O)n1 | 6.3%
51 | Cc1ccc2nc(Cl)c3cc(C(=O)NCCCN4CCCC4)sc3c2c1 | 10.5%
52 | O=S(=O)(N[C@H]1C[C@@H](NS(=O)(=O)OCC(Cl)(Cl)Cl)C2CCCCC21)OCC(Cl)(Cl)Cl (stereo partly shown) | 8.67%
53 | CN(C1CCCCC1)S(=O)(=O)c1ccc(NC(=O)Cn2nc(-c3ccc(F)cc3)ccc2=O)cc1 | 3.99%
54 | Cc1ccc(C(=O)/C=C/Nc2cccc(O)c2)cc1 | 6.34%
55 | COC(=O)c1ccc(CNS(=O)(=O)c2ccc3ccccc3c2)cc1 | 14.9%
56 | Cc1cc(C)c2cc3c(N)c(C(=O)N4CCOCC4)sc3nc2c1 | 13.7%
57 | O=C(Oc1ccc(/C=N/NC(=O)c2ccco2)cc1)c1ccccc1 | 6.17%
58 | O=C(NNC(=O)c1ccccc1OCc1ccccc1)c1ccccc1O | 17.9%
59 | CC(=O)N(c1ccc(N(C(C)=O)S(=O)(=O)c2ccccc2)cc1)S(=O)(=O)c1ccccc1 | 9.52%
60 | COc1ccc(N=Cc2c[nH][nH]c2=O)cc1 | 12.6%
61 | O=[N+]([O-])c1cc(-c2ccc(/C=N/c3nc4ccccn4c3-c3ccco3)o2)ccc1Cl | 3.5%
62 | CC(C)(C)C(=O)N1CCN(c2ccc(NC(=O)c3ccco3)cc2)CC1 | 12.4%
63 | CSc1nnc(C2CCN(CC(=O)Nc3ccccc3N3CCOCC3)CC2)n1C | -10.2%
64 | O=[N+]([O-])c1cc(/C=N\Nc2nc(-c3ccccc3)cs2)ccc1O | 12.5%
65 | Cc1ccc(N2C(=O)NC(=O)/C(=C\c3ccc(N4CCOCC4)cc3)C2=O)cc1 | 8.44%
66 | O=S(=O)(NCCO)c1cccc2cccnc12 | 3.85%

Row | SMILES | hERG current change (%, negative = inhibition) at 1uM
67 | CN(Cc1ccccc1)C(=O)CNC(=O)Cn1cnc2ccccc2c1=O | 0.746%
68 | C[C@H](NC(=O)c1nc[nH]c1C(=O)N1CCc2ccccc2C1)c1ccccc1 | 8.52%
69 | O=C(OCC(=O)N1CCCc2ccccc21)c1cnc(Cl)c(Cl)c1 | -5.84%
70 | CCOc1ccccc1NS(=O)(=O)c1c(C)noc1C | -6.57%
71 | CCCCNC(=O)c1nn2c(C(F)(F)F)cc(-c3ccccc3)nc2c1Br | 15.2%
72 | NS(=O)(=O)c1ccc(CCNC(=O)Cc2c[nH]c3ccccc23)cc1 | 14.2%
73 | COc1cc(NS(=O)(=O)c2ccc(NC(=O)c3ccco3)cc2)nc(OC)n1 | 11.5%
74 | CC(=O)Nc1ccc(Nc2nc(-c3sc(NC(C)=O)nc3C)cs2)cc1 | 20.3%
75 | CN(CCCN1CCOCC1)C(=O)c1cc(COc2cccc(C(F)(F)F)c2)on1 | -12.3%
76 | Cc1cccc2cc(CN(Cc3ccco3)C(c3nnnn3CCc3ccccc3)C(C)C)c(=O)[nH]c12 (stereo not shown) | 10.9%
77 | Cc1cccc(NC(=S)NCCSc2ccc(Cl)cc2)c1 | -0.788%
78 | COc1ccc(-n2c(Cc3cccn3C)nnc2SCC(=O)Nc2ccccc2OC)cc1 | -4.23%
79 | [O-]/C(=C(\C(=S)Nc1cccc2ccccc12)[n+]1ccccc1)c1cccs1 | 10.1%
80 | Cc1ccc(-c2nc(NC(=O)CSc3nnc(C)s3)ns2)cc1 | 10.1%
81 | C[C@]12CCC3C(CC[C@H]4CC(O)CC[C@]34C)C1CC/C2=N/O (stereo partly shown) | 11.6%
82 | O=C(NCc1ccccc1)c1ccc(Cl)nc1 | -0.152%
83 | COc1cc(OC)c(-c2nc3cnccc3n2C)cc1OC | -2.52%
84 | CC(=O)N1CCN(C(=S)NCCc2ccccc2)CC1 | 4.54%
85 | Cc1nc2c3ccccc3[nH]c(=O)n2n1 | 0.165%
86 | CNc1nc(C)c(C(C)(C)C)s1 | 14%
87 | CCOc1cccc(-c2nnc3sc(COc4ccccc4)nn23)c1 | -4.64%
88 | CCN1CCN(CCC(=O)Nc2ccc(F)c(F)c2)CC1 | 1.1%
